# According to article PMC12136788:
# This is one part of the list.
# B1: chr11:20128097:20128098:-_ENSMUSG00000044066_ENSMUST00000050611|mus_hu|motif|central (ssRNA)
# RNA: GGGAGUUCUACAGUCCGACGAUCCCAACUCUAGGUUUUCAAGAAUGUUUUACAUACAGGUUUAUAAUUGACAAUUAUUUGCGGGAGUGGUUUUUCCCUUUUAAAGUCUCAGUGUGUAUGGAACUAAGAUGAUUAAUAUGGCAACAACAGAGGAUUGAGCAUCA
# B2: chr17:88398918:88398919:-_ENSMUSG00000005371_ENSMUST00000130379|mus_hu|FALSE|FALSE (ssRNA)
# RNA: GGGAGUUCUACAGUCCGACGAUCAUGAAUUUUGUUAUGCCGAACAAUUGGACAACUGUUUGUCCUAAUUUGAAUUCCUGCUAAUGCAUUGCCAUAAAUGUCAUUUCCUUCAAUAAGGCCUCGUCCAUCACCAAAGAUGUAAACCAACAGAGGAUUGAGCAUCA
# B3: 144007290_144007410_2102_3pUTR_ENSMUSG00000029587_ENSMUST00000032591|mouse|control|control (ssRNA)
# RNA: GGGAGUUCUACAGUCCGACGAUCGAAGGCUUUCCCACACUCGUUACACUCGAAGGGCUUCUCUCCCGAGUGGAUCCUGUGAUGGAUAGUGAGAUAAGACAUCUGGGAGAAGCAUUUCCCACACUCGUAACACUCGUAGGCUUUCAACAGAGGAUUGAGCAUCA
# B4: 31378824_31380206_791_CDS_ENSMUSG00000021957_ENSMUST00000022529|mouse|control|control (ssRNA)
# RNA: GGGAGUUCUACAGUCCGACGAUCUGUUGGUUGGUGCUUGGCCUGACCAAAGGCCUUGCACAGCUCCUCCACGCUGUGUCCGUCCACGAUGAUGGUGUGCCAGCCAAAGGCCUCACAGCGCUUCUGGUAGAUGUCCACCUGGUGCAACAGAGGAUUGAGCAUCA
# B5: chr2:26332712:26332713:+_ENSG00000084733_ENST00000264710|hu_hu|motif|central (ssRNA)
# RNA: GGGAGUUCUACAGUCCGACGAUCGUUUCUAAGCCAUUUGCUGAUGUUUUCAAAACUUUUACCAUUGGUGAUGUCAUAUACGGGCAUGAUACCCAUUGCGCCUCUGUAGUAGGAGGUUGUGAUGGUGUGAAAUCGCUCCUGGCCCAACAGAGGAUUGAGCAUCA
# B6: chr2:179515052:179515053:+_ENSMUSG00000000305_ENSMUST00000000314|mus_hu|mus_mus_mus_hu_False|28_38 (ssRNA)
# RNA: GGGAGUUCUACAGUCCGACGAUCGCUGUCCCAUGCAGUCACCGUGAACGCCACCUGCUCGGAGGGGACCUGCAGCUCCCGGGUGGCGAAGACUGUCCCAUCCGCCCCGACUUUGAAGUCCAUGCUGUUGGUCUCAUAUUGUGUCAACAGAGGAUUGAGCAUCA
# B7: chr10:7398381:7398382:+_ENSMUSG00000040034_ENSMUST00000040135|mus_mus|FALSE|FALSE (ssRNA)
# RNA: GGGAGUUCUACAGUCCGACGAUCACUUACUAGAGACUGGUGAACACCGGCCUGGUUACUUAAGCUAUGUGACAGGAAAGUACUACUUCUUCCUCCUUGGUGAAAGAGAGAAGACUUUUCAGGUGCAUCUGUGGAGGCAUCCCACAACAGAGGAUUGAGCAUCA
# B8: chr6:38652254:38652255:-_ENSG00000124767_ENST00000373365|hu_hu|hu_hu_hu_mus_False|88_88 (ssRNA)
# RNA: GGGAGUUCUACAGUCCGACGAUCCGAGAACUUCAUAGCAGGGAAGUCACAUUUUUGCAGGAGGGUCAGUCCAAGAACCCUCGUAUAAAAAUCCAGGGACUUCUUAGGAUCCUUAAUUCUUAGCAUCGUUUGCUGCAGUAGAAACAACAGAGGAUUGAGCAUCA
# B9: chr12:39756943:39756944:-_ENSG00000139116_ENST00000544797|hu_mus|hu_hu_hu_mus_False|88_108 (ssRNA)
# RNA: GGGAGUUCUACAGUCCGACGAUCGGUUUGGCUAUUACCCCCAAGGGAAUCCUGUAGGAGUCUUGUCAGCUUAGAGUCUCUGUAAGGGACAUGGGUGGCUCUCUUGCUCUUGUCCCCCAAGGCGCUGAUUACAUUCCCAAGAGCCAACAGAGGAUUGAGCAUCA
# B10: chr3:49759264:49759265:-_ENSG00000173540_ENST00000308388|hu_mus|motif|central (ssRNA)
# RNA: GGGAGUUCUACAGUCCGACGAUCCCCGAUAGACUUGUGGGGCAGCACGCUGGCUCCAUUGAGGUACAGUUCAUCAUUAACGGUGACAUCUUCACCCAGCACUGUUACAUUCUCCAUGCGCACCCAUUGGCCCACACGGCAGCGCAACAGAGGAUUGAGCAUCA
# B11: chr1:187193504:187193505:+_ENSMUSG00000026615_ENSMUST00000046514|mus_mus|motif|central (ssRNA)
# RNA: GGGAGUUCUACAGUCCGACGAUCAUCAAUCUCAGUGUGCUCCAUCAGGUUAGUCCCAUACAGCCCAGACGUAGUUGCAAUUCGGGCCAGGUAGCGCAGGAUUGAAUUCACGUCAGUGAAUGCCACAGUCUCAGAAACCCGAAGCAACAGAGGAUUGAGCAUCA
# B12: chr3:176767854:176767855:-_ENSG00000177565_ENST00000430069|hu_hu|hu_hu_hu_mus_False|8_48 (ssRNA)
# RNA: GGGAGUUCUACAGUCCGACGAUCGACAUCCUUGUUACUGGGCACGUCCUGCCCUCCUUCCCGUAUGCAGUGUCUAAGCACGAGCUGUGUAGAGCCACUCGUGCUGUUCUCACUGAGGUUCCAGAUUCUUGCUGUUGAGUCUCCCAACAGAGGAUUGAGCAUCA
# B13: chr5:145543945:145543946:-_ENSG00000133706_ENST00000545646|hu_hu|hu_hu_hu_mus_True|1_38 (ssRNA)
# RNA: GGGAGUUCUACAGUCCGACGAUCCUGAACGGCCAGUGGUGGGAAAUAAUCAAGCCAGUGCUCUGCUUCAGAAAACUUCACUAUGUCGUCAUCAGAGAGGCCAAGGGAUUUCAUAAUGUCCCACUGGUACUUAGAAGAUCCAGCCAACAGAGGAUUGAGCAUCA
# B14: chr20:5919097:5919098:-_ENSG00000089195_ENST00000203001|hu_mus|FALSE|FALSE (ssRNA)
# RNA: GGGAGUUCUACAGUCCGACGAUCACACACACUCUUAGGACAAGGAGAAAAUUUUAGUGAUGACACUUAAAGUGUAAUUACCAGCUGCAGAAUGCCUUGGAACAAACAUUAAUCUCCUAAGAGUUAAGAGGCAGAUUCCAUGCACAACAGAGGAUUGAGCAUCA
# B15: chr7:75932113:75932114:+_ENSG00000106211_ENST00000248553|hu_hu|hu_hu_hu_mus_False|1_48 (ssRNA)
# RNA: GGGAGUUCUACAGUCCGACGAUCCUGCGACCACUCAUCGGGCAACCGGGGCACCCCGAAAGCUUGAUCGAAGAGGCGGCUGUGUGCGUACCAGUCGUCCCGGAAUGGUUCCCAGCUCGGGCUCCGCAGCAGCGAGAGGACGCGCAACAGAGGAUUGAGCAUCA
# B16: chr8:98289279:98289280:-_ENSG00000180543_ENST00000322128|hu_hu|motif|central (ssRNA)
# RNA: GGGAGUUCUACAGUCCGACGAUCUUCCAAGCUGUUUAAGUAGCUCAGUACCUCUUUCUCUUGGCUAUUCAGAAAGGAUGCGGGCUGGGGAUGGUUCUGAAAUGCUUGCCCCCAGAAGCCCGGGAUAUUUUGGAUGAGGUGGUUCAACAGAGGAUUGAGCAUCA
# B17: chr2:201943701:201943702:+_ENSG00000119013_ENST00000433898|hu_hu|FALSE|FALSE (ssRNA)
# RNA: GGGAGUUCUACAGUCCGACGAUCAUUGCGGCCCCAUGGAUCCCUUAGCCCUUUUGCAGCCAGCUUCUUCUGGAUAGUUUCUAAUGGUGUCCCUUCUAUCUUCCAUUGUCUAUAAUCUGGAAGUUCCAUUUUAUGAUGUCCAUGCAACAGAGGAUUGAGCAUCA
# B18: 127318676_127318796_1818_CDS_ENSMUSG00000036913_ENSMUST00000167588|mouse|control|control (ssRNA)
# RNA: GGGAGUUCUACAGUCCGACGAUCCUUCCACGUUGCCCCCAGCGGCUUCACCUCGUGCUUGCUGUGCCUGCCUUCCUCCAGGCACAUGUAGCACACAGGGCUCCGACAGCUCACGCAGUACAUGCUGUAGUUCUCCAUCUCGUGCAACAGAGGAUUGAGCAUCA
# B19: chr6:114281168:114281169:-_ENSG00000196591_ENST00000368632|hu_hu|hu_hu_hu_mus_True|8_18 (ssRNA)
# RNA: GGGAGUUCUACAGUCCGACGAUCUUCCAUUUUUCGGUAUAAACCAUAAUUUAGCAGCAAGUUAUGAGUCAUCCGGAUUCUAUGAGGCUUCAUGGGAUGACCCUGGCCAUAAUAAUAAUUUCCAAUAUCACAGAUUCAGUAGUACAACAGAGGAUUGAGCAUCA
# B20: chr11:72025555:72025556:-_ENSMUSG00000020801_ENSMUST00000021157|mus_hu|FALSE|FALSE (ssRNA)
# RNA: GGGAGUUCUACAGUCCGACGAUCUCGCACACUGAGCAUUCACCAGCUCCUUUCGGAAGUGUUCAUAUUGGAGCAGCUCUAACAUGUGUAAACACUGAGGGUACUUUAGAUACUUGGCAUAUUCUGGGUCUUUCCAGUAAAGCACAACAGAGGAUUGAGCAUCA
# B21: chr15:59387643:59387644:+_ENSG00000157450_ENST00000557998|hu_hu|motif|central (ssRNA)
# RNA: GGGAGUUCUACAGUCCGACGAUCAAGGAUGGUAUUUAACUCAGAACUCCAUAUAGUAAAUAUACAGCAGCCAUUUUGUCCGGAUUAAGGAAUGUCUUAAUACACAAUAUUAUCAUUUUCUAGAGGAUCUUUAUACAUUAAACUCAACAGAGGAUUGAGCAUCA
# B22: chr9:14812383:14812384:-_ENSMUSG00000031934_ENSMUST00000164273|mus_mus|mus_mus_mus_hu_True|38_88 (ssRNA)
# RNA: GGGAGUUCUACAGUCCGACGAUCAUAGCCCAGGUAGAUACACGCUAACAGUAUAACGAUGAGUGUCAGCAGGCGGCAGCUAAUGUACUUGAUGAUUAAAUGACUAGAAUUUUUCUUUGUCUUCAAGUACUGCUCCACAAUUGGCAACAGAGGAUUGAGCAUCA
# Biological target: T1, UNK ZnF1-3 (human, UniProt Q9C0B0 31-174)
# T1 sequence: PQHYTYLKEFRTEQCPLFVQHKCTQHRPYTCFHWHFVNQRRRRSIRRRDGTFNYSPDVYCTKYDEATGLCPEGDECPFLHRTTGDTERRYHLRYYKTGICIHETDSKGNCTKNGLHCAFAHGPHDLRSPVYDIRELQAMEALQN
# Assay: nsRBNS (natural sequence RNA bind-n-seq); RBNS binding buffer (assumed for nsRBNS): 25 mM Tris pH 7.5, 150 mM KCl, 3 mM MgCl2, 0.01% Triton X-100, 500 ug/ml BSA, 20 U/ml SUPERase-In, 4 C; UNK is unkempt and MSI1 is Musashi-1; names of the RNAs are library labels; protein concentration not given here; high values mean tight binding
row,Binder,binding signal [enrichment R]
1,B1,1.02
2,B2,0.661
3,B3,0.911
4,B4,0.34
5,B5,0.588
6,B6,0.733
7,B7,0.906
8,B8,1.01
9,B9,0.907
10,B10,0.927
11,B11,1.19
12,B12,0.456
13,B13,1.4
14,B14,1.23
15,B15,0.605
16,B16,1.05
17,B17,0.597
18,B18,0.492
19,B19,1.28
20,B20,0.816
21,B21,0.865
22,B22,1.01
